Sequences and labels used below:
T1: UNK ZnF1-3 (human, UniProt Q9C0B0 31-174)
T1 sequence: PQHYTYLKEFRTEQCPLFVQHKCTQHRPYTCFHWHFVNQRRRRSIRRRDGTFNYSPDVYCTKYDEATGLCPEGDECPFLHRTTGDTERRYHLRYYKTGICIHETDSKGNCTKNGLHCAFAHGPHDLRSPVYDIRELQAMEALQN

B1: chr9:95013113:95013114:-_ENSG00000196305_ENST00000443024|hu_hu|hu_hu_hu_mus_False|1_8 (ssRNA)
RNA: GGGAGUUCUACAGUCCGACGAUCCUCAGUCAGAAAGGGCGUGUAAGGGGCCAUCAGUCUGCACAGAGAAAGCAGGACACUGAACAGUGUCUCCAGAGCCAUGACACAGUCUUCCACCCCACUCUCACCCUUUAAUCUUCUGCGCAACAGAGGAUUGAGCAUCA
B2: chr12:86311719:86311720:-_ENSMUSG00000042350_ENSMUST00000043169|mus_mus|motif|central (ssRNA)
RNA: GGGAGUUCUACAGUCCGACGAUCGGCUGCGGCGUGAAGAAAAACGUUACCCGAACGGGGGCUGCAACGUGGCCAAGUCCGGGUUCUGGGGUCCGAGGAAGCAGCGGCCUCAUCCAGCACAAAUCCUACCCUCCACCCGCCCCCCAACAGAGGAUUGAGCAUCA
B3: chr7:56126341:56126342:+_ENSG00000146731_ENST00000540286|hu_mus|hu_hu_hu_mus_True|18_88 (ssRNA)
RNA: GGGAGUUCUACAGUCCGACGAUCCAUGUUUCUCCUCUUGGCUCUGCGCAGAGCAACGAUCCCUUCUUUCGCAAGGGCAUCUAAGGAAAAGGGGUCAAUCCCCUUUUGAUUAAUAACAACAAAUCCUUUAUCUGAGUCACCACACAACAGAGGAUUGAGCAUCA
B4: chr10:7364202:7364203:-_ENSMUSG00000019795_ENSMUST00000163085|mus_hu|FALSE|FALSE (ssRNA)
RNA: GGGAGUUCUACAGUCCGACGAUCUCCAGAUCCUACAUCAAGAGCUUUAGCUCCUUCAUGCAACUGAUCAAAUAGAAGUUCUAGCGCAUAUGCAUGCAUGUGUGGAGCACUGAUUGUUGCUUGGAAACCUAUUGAUUGUGGAGACAACAGAGGAUUGAGCAUCA
B5: chr2:148701126:148701127:-_ENSMUSG00000027447_ENSMUST00000028938|mus_mus|FALSE|FALSE (ssRNA)
RNA: GGGAGUUCUACAGUCCGACGAUCCUAGGACAAAGGGAUAAAGCUCCAACAAGACUCUGAGUUGGUGCAGAACAGACGCUGCUACUCCGUGCGACUUUUACCCAAAUGCGAGCGUUAGGGACCCGCCCGCCUCUCCUGGCUCCUCAACAGAGGAUUGAGCAUCA
B6: chr22:38894135:38894136:-_ENSG00000100201_ENST00000396821|hu_hu|FALSE|FALSE (ssRNA)
RNA: GGGAGUUCUACAGUCCGACGAUCAUAGUCAUCGGCCACCUGCUGUACUUGCUGGGCAAGCUCUCUGGUAGGAGCCAGAACUAGACAGAUUGGGCCAUCUCCCCUUUCCAAGUAUGGCUGGUGGUUAAUAUGAACAAUUGCAGGCAACAGAGGAUUGAGCAUCA
B7: chr2:47387792:47387793:-_ENSG00000143933_ENST00000272298|hu_hu|hu_hu_hu_mus_True|1_38 (ssRNA)
RNA: GGGAGUUCUACAGUCCGACGAUCUAAGGACAAUGACAGUAAGAUAAGGGAAGAAAACAUGGAGGAAUGAAGUCCUAAUUACUAUACAUGCAUAUUUUUUUGACAGUGGGGGGGGGAACCUUUUACAGAUAAGUUACACAAAGACAACAGAGGAUUGAGCAUCA
B8: chr8:117866615:117866616:-_ENSG00000164754_ENST00000297338|hu_hu|motif|central (ssRNA)
RNA: GGGAGUUCUACAGUCCGACGAUCCAAUUUCUUGGUGGGCGGUGCCAGAUCCAAAGUAGUAACAAUAUCUGAAUAAUCACGGAGUUGGGCUCUAAUUGUCUUGCUAUCCAACUCUUUGACACUGUCAACAAUUAGCUUCCUCUUCAACAGAGGAUUGAGCAUCA
B9: chr7:54823571:54823572:-_ENSG00000132432_ENST00000352861|hu_mus|FALSE|FALSE (ssRNA)
RNA: GGGAGUUCUACAGUCCGACGAUCUCCCAUGAUAGCAAAUCCUAUAGCUGUAGCCAUGGCAAUCUUCUGGAAUUCUUUUCUGUCGGGUUUGGUGCAUCUUUUAACCAGCCGAAUUGAGUCCUUUACAAACUGCCGGCUGGGCUCCAACAGAGGAUUGAGCAUCA
B10: chr2:131005039:131005040:-_ENSMUSG00000068267_ENSMUST00000089510|mus_mus|motif|central (ssRNA)
RNA: GGGAGUUCUACAGUCCGACGAUCGUACCACAGGCUGGUCUCGGUGGCGCUGAACACGUCCUGCGAGGCGUAGCCCUCAGCGGCCGACGGCGGCUGCUCCUCCCUCGUGUGCCAGCCGGGUGUGCUCCCACCGCUGCCCUCGGACAACAGAGGAUUGAGCAUCA
B11: chr16:94690422:94690423:+_ENSMUSG00000040785_ENSMUST00000117648|mus_mus|motif|central (ssRNA)
RNA: GGGAGUUCUACAGUCCGACGAUCAUGUAUUCAAGGUUCACAUGUCUGUAUUUGCCACUGCCUACAGGUCACUAAAAAUACCGGGUUUUUGAAUAGUUUCUAAUACAGUUAGCUUGUUUUCAGGCCACAUUACAAGAUUGCAUGCAACAGAGGAUUGAGCAUCA
B12: chr14:78183846:78183847:+_ENSG00000119705_ENST00000557342|hu_hu|hu_hu_hu_mus_False|78_98 (ssRNA)
RNA: GGGAGUUCUACAGUCCGACGAUCUCUCAGAAAUCUUUCUUUCUUUUAUGUUUGAGCUGUUUGCGGAGCCUUUGCUCUUUGAGCUUGAACGUGGAUCUAUGGGAGGGAAAGCACUGUCAGAAAAGGUAAUUUUUUUUUUAAAGACAACAGAGGAUUGAGCAUCA
B13: chr6:41757443:41757444:+_ENSG00000214736_ENST00000398881|hu_mus|hu_hu_hu_mus_False|68_98 (ssRNA)
RNA: GGGAGUUCUACAGUCCGACGAUCGAACCGUGCAGAGACCAGAGAAUAGCCGACACUGGGGGAUGGGGGAACAAAAGGGGGGGGUUCAGGCAAGGAGAGGGAGUCAACUUCAGCUGCCACUCAGGUAGGAUCUUGUGGUCACAGCAACAGAGGAUUGAGCAUCA
B14: chr16:13687521:13687522:+_ENSMUSG00000022684_ENSMUST00000023365|mus_hu|motif|central (ssRNA)
RNA: GGGAGUUCUACAGUCCGACGAUCGGCUGCAAGACUUUGGACUAUGUCAUUAUUCUGCUGAAUGUCUUCAAAUCUCAGUCGGAUGGCAUCAGGAAAUAACUUUUCAAUGGCAUCCCUGAGGAGAAUACUGACUUUGGGGAAACCCAACAGAGGAUUGAGCAUCA
B15: chr3:112251601:112251602:-_ENSG00000144848_ENST00000283290|hu_mus|FALSE|FALSE (ssRNA)
RNA: GGGAGUUCUACAGUCCGACGAUCAGGAUAGACUCUAUAGCCUCUCCACUACAUUGUGAAGUGUCUUGUGUAGUCAUAUUCUAUUGUUGGAAUGACAGCUUGAACAAAUUUCAAAAAAAUUAAAAGAUACAUAUGAACACCAAGCAACAGAGGAUUGAGCAUCA
B16: chr9:95013113:95013114:-_ENSG00000196305_ENST00000443024|hu_hu|hu_hu_hu_mus_False|1_58 (ssRNA)
RNA: B1 RNA with G81A, G86A, U135C
B17: chr5:134235298:134235299:+_ENSG00000113621_ENST00000507024|hu_hu|motif|central (ssRNA)
RNA: GGGAGUUCUACAGUCCGACGAUCUGUCCUGGAAUUAGCCACCGAAUACUCUCAGUUCGAAUGGUAGCAUACAUAAUAAAACGGAUUAAAAAGAAUAAGGAAAAUACAAGCAACCAGUCCACACUUUUUAUCAAAGUGCUGGGACAACAGAGGAUUGAGCAUCA
B18: chr2:225400320:225400321:-_ENSG00000036257_ENST00000409096|hu_hu|motif|central (ssRNA)
RNA: GGGAGUUCUACAGUCCGACGAUCGUUCUCCACAUUAUUUUGUUGUACAUACACACGGUCCAUGUACAUUAGUAUGUCUCGGAUCAUCACCAUAGCUGUUUGAUGAUCAUUCCAAGCUUGAUUUAGCGUUUGAAGAAAGUUGUUCAACAGAGGAUUGAGCAUCA
B19: chr7:141441981:141441982:+_ENSG00000106028_ENST00000265304|hu_mus|hu_hu_hu_mus_False|8_48 (ssRNA)
RNA: GGGAGUUCUACAGUCCGACGAUCCUCAUGUCUUACAAACUGACGAAAUACCUGUAACACAGGUCUUCGAAACAUGGCUUCUGUUUUCUUUUCUUACUAAUCUUUAGGCUUUUCCUAAAGGAAAGAAUAACCCGAGCAAAAUGACAACAGAGGAUUGAGCAUCA
B20: chr13:74460584:74460585:-_ENSMUSG00000021577_ENSMUST00000022062|mus_hu|FALSE|FALSE (ssRNA)
RNA: GGGAGUUCUACAGUCCGACGAUCGUCUCAUCAGUAGGAGCGAAUGGCUGGCGGGACGGUGGCACAGUCAGCCUCGUUCAAAGUUUUGUCGAUCACGGGUCUAUAUUCCAGAGUGACCUUCCCAGUGCCAACGUCCACAUAGGACAACAGAGGAUUGAGCAUCA
B21: chr8:146017231:146017232:-_ENSG00000161016_ENST00000531975|hu_mus|FALSE|FALSE (ssRNA)
RNA: GGGAGUUCUACAGUCCGACGAUCGAACUGUCCAGUGUGGAUCCCCUCCGCUGCGAUGAACAGCUCUGUCCGCUUCUUGAAUCGGUAGGGAUCCCGAAAGACGACUUUGGCGAGGGGAGCGCCGCGGCCAGGGUCAUGAAUGAUCAACAGAGGAUUGAGCAUCA
B22: chr1:68170538:68170539:-_ENSG00000172380_ENST00000370982|hu_hu|FALSE|FALSE (ssRNA)
RNA: GGGAGUUCUACAGUCCGACGAUCUUAGGAUACUCUUUACUUUUUGUACAAUAACGAUAUGAAAGGAAUUUUUUAUUCUACCUAUACACAGCUCAAAAUAAAGGUAUAACUUCUGGAACUGAGAAACUGAUGGUAUGGAGAGAGCAACAGAGGAUUGAGCAUCA

Residue numbers refer to the chain shown, from its start. Some of the results follow.

The target in the assay is T1, UNK ZnF1-3. The assay is described as follows: nsRBNS (natural sequence RNA bind-n-seq); RBNS binding buffer (assumed for nsRBNS): 25 mM Tris pH 7.5, 150 mM KCl, 3 mM MgCl2, 0.01% Triton X-100, 500 ug/ml BSA, 20 U/ml SUPERase-In, 4 C; UNK is unkempt and MSI1 is Musashi-1; names of the RNAs are library labels; protein concentration not given here; high values mean tight binding.
Take B1: the binding signal stood at 0.985 enrichment R.

B2 returned a binding signal of 1.44 enrichment R.

In the case of B3, the binding signal worked out at 1.19 enrichment R.

The molecule B4 yielded a binding signal of 1.05 enrichment R.

Take B5: the binding signal worked out at 0.997 enrichment R.

B6 had a binding signal of 0.527 enrichment R.

B7 came in with a binding signal of 2.05 enrichment R.

For the molecule B8, the binding signal turned out to be 0.978 enrichment R.

B9 yielded a binding signal of 0.719 enrichment R.

The molecule B10 gave a binding signal of 0.766 enrichment R.

In turn, B11 returned a binding signal of 1.11 enrichment R.

Take B12: the binding signal came out at 1.21 enrichment R.

As to B13, the binding signal is 2.29 enrichment R.

As to B14, the binding signal amounted to 1.17 enrichment R.

On to B15, for which the binding signal was determined as 2.49 enrichment R.

In turn, B16 had a binding signal of 1.21 enrichment R.

Take B17: the binding signal came to 2.71 enrichment R.

Take B18: the binding signal turned out to be 0.526 enrichment R.

As for B19, the binding signal is 0.71 enrichment R.

Turning to B20, the binding signal is 0.748 enrichment R.

Molecule B21 came in with a binding signal of 0.439 enrichment R.

As for B22, the binding signal was 0.984 enrichment R.
